In the RNAGym collection of RNA variant scans (doi:10.1093/nar/gkz1192):
The source gives no read counts; variants with many changes may rest on few reads.

B1: CPEB3 Ribozyme (parent)
chain: UAACAGGGGGCCACAGCAGAAGCGUUCACGUCGCAGCCCCUGUCAGAUUCUGGUGAAUCUGCGAAUUCUGCUGUAUAUCUC

Variants of: B1
Experiment: self-cleavage, relative activity (ratio to wild type); higher = more cleavage; in vitro, sequencing
Method in brief: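 Barcoded CPEB3 ribozyme mutants, produced by rounds of error-prone PCR, self-cleaved while being transcribed with T7 RNA polymerase for 5 hours at 37°C and during a subsequent 15 min DNase I step before EDTA was added. Sequencing of template-switched cDNA on Illumina gave cleaved and total reads, and DNA sequencing assigned barcodes to variants. Each variant's relative activity is its cleaved/total read fraction divided by the unmutated ribozyme's fraction, averaged across three batches. A variant needed a minimum of 5 reads.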
With G8A U31C U43C U72A the self-cleavage was 0.05.
Variant G9A C38U A64G has a self-cleavage of 0.65.
G8A G10A G30A U78C gave a self-cleavage of 0.07.
G9A C29U U67C gave a self-cleavage of 0.12.
With G9A C32A C38U A64G U69A the self-cleavage was 0.09.
G8A U26C U41C showed a self-cleavage of 0.3.
Variant G9U A18G A20G U48C C79A has a self-cleavage of 0.05.
Work on G8U A13G G63U yielded a self-cleavage of 0.34.
G9U G16A U25A C39U U78A gave a self-cleavage of 0.04.
For G8U A15U U25C U43G A45U A57G, the self-cleavage was 0.03.
For G8C U58C G63U U66C U69A, the self-cleavage was 0.1.
For G8U U26C U31C A64G G70C, the self-cleavage was 0.08.
G8A U31C A64G U69C gave a self-cleavage of 0.17.
In the case of G9U A21G G52U U69C, the self-cleavage is reported as 0.05.
Work on G8U A35G U43A U80C yielded a self-cleavage of 0.1.
With G9U U49A U80A the self-cleavage was 0.25.
Work on G9A A20G U66C yielded a self-cleavage of 0.07.
Work on G8C A13G G24A U51C U60A yielded a self-cleavage of 0.54.
In the case of G9A A13C A20G A21G U41A A65G, the self-cleavage is reported as 0.06.
Variant G8U A45G U48C U80A has a self-cleavage of 0.05.
For G8A G10A U26A U54C G55C U67C, the self-cleavage was 0.04.
G9U A47G U80C gave a self-cleavage of 0.41.
G9A A15U A47G U60C U69C showed a self-cleavage of 0.06.
G9A A13G C44A C62A G70A showed a self-cleavage of 0.17.
In the case of G8A U26C C32A U41A G52U C62U, the self-cleavage is reported as 0.21.
With G8A C37G U49C A65G U66C the self-cleavage was 0.04.
In the case of G9U U58C U66C G73A, the self-cleavage is reported as 0.06.
In the case of G9U A15G A18U A35U U54C A64G, the self-cleavage is reported as 0.05.
G9A A13C A75U showed a self-cleavage of 0.17.
Variant G8U U31G U51A A75U has a self-cleavage of 0.05.
With G8A U25C C38U A45G the self-cleavage was 0.32.
For G8A G16A C17U U25A U43A A65G, the self-cleavage was 0.06.
Work on G9A A56G U72A yielded a self-cleavage of 0.38.
Work on G8C A21G A35U A47C U48C U67C yielded a self-cleavage of 0.03.
G8C A13U A21G G33U A57U A64U gave a self-cleavage of 0.1.
With G9A G10C A20U A64G U72C U78A the self-cleavage was 0.05.
Variant G9U C14U C23G U67C U72C has a self-cleavage of 0.05.
G9A A13U U72A A77G showed a self-cleavage of 0.07.
G9A A35G U54A A57U U78C showed a self-cleavage of 0.27.
G9U U49G U67C G70A showed a self-cleavage of 0.06.
With G9A G33A A35U U51C U54A U69C the self-cleavage was 0.05.
With G9A A13G A35U C81U the self-cleavage was 0.07.
G9A U26C A45G A56U A77G showed a self-cleavage of 0.07.
G9C A20U A47G U48C A56G showed a self-cleavage of 0.09.
G9C A20G G24U U78C showed a self-cleavage of 0.28.
G9U A13G G24A U25C U41C U72A showed a self-cleavage of 0.05.
G9A U51A A57G U78C showed a self-cleavage of 0.07.
Variant G8C A18G A56G has a self-cleavage of 0.26.
G8A U26A U43C G61U gave a self-cleavage of 0.08.
Work on G8C U26C U67C yielded a self-cleavage of 0.14.
With G8U A13G G52A G73U the self-cleavage was 0.32.
In the case of G8U C14G U67C U69C, the self-cleavage is reported as 0.06.
For G9U A28G U41A U43C U49C U69C, the self-cleavage was 0.02.
With G9A U31C U54C U72A the self-cleavage was 0.19.
In the case of G9U C23U G42A U67A U69A U78C, the self-cleavage is reported as 0.03.
For G9A A28G C32U U51G C62A, the self-cleavage was 0.05.
In the case of G9C U26C U31A A47G U51A U80C, the self-cleavage is reported as 0.04.
With G9A C17U A57G the self-cleavage was 0.22.
With G9A A15U A57G the self-cleavage was 0.29.
For G8U G33C A77G, the self-cleavage was 0.09.
G8A G22C A35G U60C U80A gave a self-cleavage of 0.14.
For G8C A18G A21U A28G U43C U72C U80C, the self-cleavage was 0.05.
G9A U25C G53A A56G showed a self-cleavage of 0.17.
G8C G52U A56U gave a self-cleavage of 0.26.
In the case of G9U A35G A45G U66A, the self-cleavage is reported as 0.27.
For G9A A15G A20G G53C U60C U80G, the self-cleavage was 0.2.
In the case of G9A A21G C23U, the self-cleavage is reported as 0.04.
For G8C G24A U51A C62A U67C C68U, the self-cleavage was 0.05.
For G8U A20G U60C U69G, the self-cleavage was 0.04.
In the case of G9A A15G C23U A35G G36A U54G U76G, the self-cleavage is reported as 0.04.
For G9A A21G U51A U69C, the self-cleavage was 0.03.
Variant G9A A21U U66C U69C U78C has a self-cleavage of 0.13.
Variant G8A U41C A45G U69A has a self-cleavage of 0.21.
G8C A15G A18U G19U A20G A56U U67C showed a self-cleavage of 0.15.
With G9A A20G U43A U72C the self-cleavage was 0.42.
G9A C11G G19C U31A U41C U66C U69C showed a self-cleavage of 0.03.
For G8U A28G U43C U48C G55A G70C, the self-cleavage was 0.22.
G9A A15G A28G C50A U51A U67A showed a self-cleavage of 0.16.
G8U A35G C44U U80C gave a self-cleavage of 0.06.
Variant G9U A28U U51C A56G U69C A75G has a self-cleavage of 0.01.
G9A U31C C38A A45G U54A A56G U67A showed a self-cleavage of 1.14.
With G9A U25C A35G U43C U58A U72C the self-cleavage was 0.06.
Work on G8A U26C A56G U60C C71U U72C yielded a self-cleavage of 0.11.
Variant G9A A15G U60C has a self-cleavage of 0.35.
G8U G9A A35G C37G U41C C59A U67C gave a self-cleavage of 0.04.
G9C U31C U48C showed a self-cleavage of 0.07.
G8C A47G U58C showed a self-cleavage of 0.08.
Variant G8A G10A U60A has a self-cleavage of 0.12.
G8C A13G A15G A28U U43C showed a self-cleavage of 0.54.
Variant G9U U43C A56U U66C G70A U78C has a self-cleavage of 0.08.
With G8U U51C A65C the self-cleavage was 0.05.
Variant G9C A18G C38U has a self-cleavage of 0.07.
G9U U41A A56G A65U U78C showed a self-cleavage of 0.1.
G8C A20C G36A C38A A65G U67C gave a self-cleavage of 0.21.
With G8C A13G A45G A57G the self-cleavage was 0.07.
G9U C12U A35G U41C U76C gave a self-cleavage of 0.07.
G8U A18G A56U A64G gave a self-cleavage of 0.16.
G8A U48C A56G U69C U72C G73U showed a self-cleavage of 0.12.
Variant G9A A21G U31A U43C A65G U67C has a self-cleavage of 0.26.
For G9A A28U A35U C40U, the self-cleavage was 0.14.
In the case of G8A U60A A64U U69C U78C, the self-cleavage is reported as 0.05.
Variant G8A G10A U25C A45C A64G has a self-cleavage of 0.19.
Work on G10A A13G A18G U25A yielded a self-cleavage of 0.06.
For G8A G33A A57G, the self-cleavage was 0.16.
G9C A35G U49A U54C U80C C81U gave a self-cleavage of 0.15.
G9A A20U U43A U72C showed a self-cleavage of 0.27.
With G8A U25C U66C the self-cleavage was 0.07.
Work on G9A G22C G53A A77G yielded a self-cleavage of 0.04.
Variant G8U C11U A18U U49A C62U A64U U74C has a self-cleavage of 0.03.
With G9A A15U A45G U51C U58C U66C U80C the self-cleavage was 0.05.
G9U A18G A21G U60C A65G U72A showed a self-cleavage of 0.04.
G9C A15U U41C U58C U69C U80A showed a self-cleavage of 0.09.
With G9A U26C A65G U69A the self-cleavage was 0.24.
G10A A13G C38U U58C gave a self-cleavage of 0.09.
G9A C14U A20G U25C U74C gave a self-cleavage of 0.78.
In the case of G9A U48C U78C U80C, the self-cleavage is reported as 0.06.
In the case of G9A A13C C14U U41A A56C, the self-cleavage is reported as 0.17.
With G9U A35U U69A the self-cleavage was 0.11.
G9A U49C U80C showed a self-cleavage of 0.39.
G8U A13U U41A U66C U67G A77U gave a self-cleavage of 0.04.
Work on G9A A35G U41C A57G U58C A65U yielded a self-cleavage of 0.07.
For G8A G10A A13U A35U U80C, the self-cleavage was 0.02.
In the case of G9U U31C A35G, the self-cleavage is reported as 0.26.
Variant G9C U66C A77C U80C has a self-cleavage of 0.2.
G9U C12U A64G showed a self-cleavage of 0.06.
In the case of G8C A13C U26C U69A, the self-cleavage is reported as 0.11.
G9U U26C U41A U43A A77G U80C showed a self-cleavage of 0.04.
Variant G8C U66C U69A has a self-cleavage of 0.23.
In the case of G8A G10A U31C A57G, the self-cleavage is reported as 0.05.
Work on G8U U26A U41C U49C yielded a self-cleavage of 0.13.
G9C A56G U74C showed a self-cleavage of 0.12.
G9U A35G A45G gave a self-cleavage of 0.09.
With G9U C23A U74C the self-cleavage was 0.21.
In the case of G9A U26C A28U U60A A75U A77U, the self-cleavage is reported as 0.05.
With G9A C11A A21C U54C U76C the self-cleavage was 0.04.
Work on G9A G10C C11U A20G G30U A35U A56G yielded a self-cleavage of 0.05.
Work on G8U A13U U25C A56G G61C U72C A75U yielded a self-cleavage of 0.05.
In the case of G8A U41G A56G U74C, the self-cleavage is reported as 0.42.
Work on G9U C39A G46C U58A A77G yielded a self-cleavage of 0.13.
With G9U A18G A28G U58G U60C the self-cleavage was 0.05.
Variant G9U A13G U31C A47G U76A has a self-cleavage of 0.05.
Variant G9A C17U U26C C39U U72A has a self-cleavage of 0.03.
Work on G9A U31C U78C yielded a self-cleavage of 0.04.
With G9U A13U A57G A65U U66C the self-cleavage was 0.05.
G8A G19U U51C gave a self-cleavage of 0.16.
Variant G8A G19C G30A U41C A56G U67C C71A has a self-cleavage of 0.03.
For G9U U26A G42U A64G U66C U74A A75U, the self-cleavage was 0.05.
G8A U41C A57G U76C gave a self-cleavage of 0.1.
G8U C50U U54C U58C U60C C81A gave a self-cleavage of 0.11.
For G8U U31C U49C, the self-cleavage was 0.32.
Variant G10A A13G U26C has a self-cleavage of 0.24.
For G9A U60A U74A U80A, the self-cleavage was 0.05.
Variant G8U U41A G61C has a self-cleavage of 0.19.
Variant G9A U26C A45U A56U U60G A77G U80C has a self-cleavage of 0.11.
Work on G9A A28G G33A U51G yielded a self-cleavage of 0.14.
With G9A A35G U72A the self-cleavage was 0.46.
G9U U72G A75G showed a self-cleavage of 0.43.
G9A C40U A45G G52A A56U A64U A77G showed a self-cleavage of 0.03.
G8A U25C A35G A45U U67A showed a self-cleavage of 0.15.
G9U U25G C32A C34A U67C gave a self-cleavage of 0.07.
In the case of G10A A13G A56G U60C U78C, the self-cleavage is reported as 0.11.
G8U U25C A35G gave a self-cleavage of 0.07.
Variant G9A U26C C37U U54C A56U has a self-cleavage of 0.05.
In the case of G9U A15U U41C U67A, the self-cleavage is reported as 0.09.
In the case of G9A A18U U26A C38A U66C U67A C71U, the self-cleavage is reported as 0.03.
With G9A A18G A21G U26C G61A the self-cleavage was 0.25.
G9U C12U A35G U72A gave a self-cleavage of 0.06.
